PMC9897667, “Identification of procathepsin L (pCTS-L)–neutralizing monoclonal antibodies to treat potentially lethal sepsis” (Science Advances, 2023)

Biological target: T1, recombinant human procathepsin L (pCTS-L) (human, UniProt P07711 18-333)
T1 construct: procathepsin L (pCTS-L), human, recombinant; A HEK293-made pCTS-L is named only for stimulating PBMCs; also called proCTS-L; human pCTS-L; source: recombinant, highly purified
T1 sequence (looked up): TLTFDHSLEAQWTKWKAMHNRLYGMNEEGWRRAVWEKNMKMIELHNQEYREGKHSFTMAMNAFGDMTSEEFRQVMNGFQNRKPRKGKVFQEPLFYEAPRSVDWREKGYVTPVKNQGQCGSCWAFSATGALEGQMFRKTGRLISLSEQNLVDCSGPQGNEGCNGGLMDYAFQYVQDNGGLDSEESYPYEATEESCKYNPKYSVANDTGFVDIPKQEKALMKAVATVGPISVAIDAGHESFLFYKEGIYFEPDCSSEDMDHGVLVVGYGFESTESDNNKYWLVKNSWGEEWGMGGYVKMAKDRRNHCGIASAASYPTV
Experiment: SPR; OpenSPR, series of Fig. 10A; pCTS-L immobilised on NTA sensor chip and preincubated with the anti-pCTS-L mAb20 before TLR4 or RAGE was applied at various concentrations
Conditions: both partners purified

- KD with mAb20 preincubated on pCTS-L: 30.4 ± 9.8 nM
B1: extracellular domain of human RAGE ([…]) (receptor)
chain: not shown
notes: signal peptide in the construct; receptor for advanced glycation end products, human, extracellular domain, […]; also called receptor for advanced glycation end products; recombinant RAGE; source: bought: Sino Biological Inc
